# Measured values taken from PubChem BioAssay AID624255 (Broad Institute, 2012).
# In all, about 77,000 compounds went through this assay and about 4,600 (6%) were called active. This list was built around the results that the source calls inconclusive (neither active nor inactive); the mix of calls is not that of the screen.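 The calls were made as follows: active = mean inhibition above about 93%, with at least 55% of replicates each passing it (limit read from the data, passing the limit was not always enough); inconclusive = only one of those two conditions holds; inactive = neither condition holds.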
# Experiment: T. cruzi intracellular proliferation inhibitors, primary screen, cell-based, beta-gal Tulahuen parasites, NIH3T3 host, luminescence (AID 624255)
# Conditions: T. cruzi beta-gal in NIH3T3, GalScreen luminescence, 90 h; at 8.34 µM; stronger effect = higher value
row,Structure (SMILES),inhibition
1,C[C@H]1CN([C@@H](C)CO)S(=O)(=O)c2ccc(C3=CCCC3)cc2O[C@@H]1CN(C)C(=O)C1CCCCC1,inconclusive: 96.9%
2,C[C@@H]1CCCCO[C@@H](CN(C)C(=O)C2CCCCC2)[C@H](C)CN([C@H](C)CO)C(=O)c2cc(NS(=O)(=O)c3ccc(Cl)cc3)ccc2O1,inconclusive: 113%
3,C[C@@H]1CN([C@@H](C)CO)C(=O)Cc2cc(NC(=O)C3CCCCC3)ccc2O[C@@H]1CN(C)CC1CC1,active: 97.2%
4,C[C@@H]1CN([C@@H](C)CO)C(=O)c2cc(NS(=O)(=O)c3ccc(F)cc3)ccc2O[C@@H](C)CCCCO[C@@H]1CN(C)S(=O)(=O)c1cccs1,active: 97.4%
5,CCCNC(=O)N(C)C[C@@H]1Oc2ncc(C#CC3CC3)cc2C(=O)N([C@H](C)CO)C[C@@H]1C,inactive: 11.2%
6,COc1cccc(C#Cc2ccc3c(c2)O[C@H](CN(C)C(C)=O)[C@@H](C)CN([C@@H](C)CO)S3(=O)=O)c1,inconclusive: 110%
7,C[C@@H]1CCCCO[C@H](CN(C)C(=O)Nc2ccc(C(F)(F)F)cc2)[C@H](C)CN([C@H](C)CO)C(=O)c2cc(NS(=O)(=O)c3ccc(Cl)cc3)ccc2O1,active: 99.1%
8,C[C@H](CO)N1C[C@H](C)[C@H](CN(C)C(=O)c2ccc(N3CCN(C)CC3)cc2)OCc2cn(nn2)CCCC1=O,inconclusive: 113%
9,C[C@@H]1CN([C@@H](C)CO)C(=O)c2cc(C3=CCCC3)cnc2O[C@@H]1CN(C)Cc1ccccc1,inconclusive: 80.9%
10,C[C@H](CO)N1C[C@H](C)[C@H](CN(C)C(=O)c2ccccc2)Oc2cc(C3=CCCCC3)ccc2S1(=O)=O,active: 103%
11,C[C@H]1CCCCO[C@@H](CN(C)Cc2ccc(C(F)(F)F)cc2)[C@@H](C)CN([C@@H](C)CO)C(=O)c2cc(NC(=O)C3CCCCC3)ccc2O1,inconclusive: 122%
12,C[C@@H]1CCCCO[C@@H](CN(C)Cc2ccccc2)[C@H](C)CN([C@H](C)CO)C(=O)c2cc(NC(=O)NC3CCCCC3)ccc2O1,inconclusive: 89.8%
13,C[C@@H]1CN([C@@H](C)CO)S(=O)(=O)c2ccc(-c3ccncc3)cc2O[C@H]1CN(C)C(=O)Nc1ccc(F)cc1,active: 102%
14,C[C@H]1CN([C@@H](C)CO)S(=O)(=O)c2ccc(-c3ccncc3)cc2O[C@@H]1CN(C)Cc1ccncc1,active: 100%
15,C[C@@H]1CCCCO[C@H](CN(C)Cc2ccccc2)[C@H](C)CN([C@H](C)CO)C(=O)c2cc(NS(=O)(=O)c3ccc(Cl)cc3)ccc2O1,active: 109%
16,Cc1ccc(S(=O)(=O)Nc2ccc3c(c2)C(=O)N([C@H](C)CO)C[C@H](C)[C@H](CN(C)S(=O)(=O)c2ccc(C)cc2)OCCCC[C@H](C)O3)cc1,inconclusive: 97.1%
17,O=C(C[C@@H]1CC[C@H]2[C@@H](COC[C@H](O)CN2Cc2ccccc2)O1)N1CCOCC1,inactive: 82.8%
18,Cc1ccc(S(=O)(=O)Nc2ccc3c(c2)C(=O)N([C@H](C)CO)C[C@@H](C)[C@@H](CN(C)Cc2ccc(Cl)c(Cl)c2)O3)cc1,inconclusive: 117%

row,Structure (SMILES),inhibition
1,CC(C)C#Cc1ccc([C@@H]2[C@H]3CN(S(=O)(=O)Cc4ccccc4)CCCCN3[C@H]2CO)cc1,active: 101%
2,Cc1noc(C)c1S(=O)(=O)Nc1ccc2c(c1)C(=O)N([C@H](C)CO)C[C@@H](C)[C@@H](CN(C)C(=O)CCCN(C)C)OCCCC[C@H](C)O2,inactive: 6.21%
3,C[C@@H]1CCCCO[C@@H](CN(C)Cc2ccc3c(c2)OCO3)[C@@H](C)CN([C@@H](C)CO)C(=O)c2cc(NC(=O)Nc3ccc(C(F)(F)F)cc3)ccc2O1,inconclusive: 122%
4,Cc1cccc(S(=O)(=O)N(C)C[C@@H]2OCc3ccccc3-c3c(n(C)c4ccccc34)C(=O)N([C@@H](C)CO)C[C@H]2C)c1,inactive: 65.2%
5,CC(C)CC#Cc1ccc2c(c1)O[C@@H](CN(C)C(=O)Cc1ccccc1)[C@H](C)CN([C@H](C)CO)S2(=O)=O,active: 129%
6,COCC(=O)Nc1ccc2c(c1)[C@@H]1C[C@@H](CC(=O)NCc3ccc(-c4ccccc4)cc3)O[C@@H](CO)[C@@H]1O2,inconclusive: 96.6%
7,Cc1ccc(S(=O)(=O)N(C)C[C@H]2Oc3cc(-c4cccc(F)c4)ccc3S(=O)(=O)N([C@@H](C)CO)C[C@H]2C)cc1,active: 119%
8,CC(C)NC[C@@H]1[C@@H](c2ccc(C3=CCCCC3)cc2)[C@H](CO)N1C(=O)NC(C)C,inconclusive: 97.1%
9,C[C@@H]1CCCCO[C@@H](CN(C)C(=O)Nc2ccccc2)[C@H](C)CN([C@@H](C)CO)C(=O)c2cc(NC(=O)Nc3ccccc3)ccc2O1,inconclusive: 97.4%
10,COc1ccc(NC(=O)N(C)C[C@@H]2Oc3cc(C#CCC(C)C)ccc3S(=O)(=O)N([C@@H](C)CO)C[C@@H]2C)cc1,active: 98.6%
11,C[C@H](CO)N1C[C@H](C)[C@@H](CN(C)CC2CCCCC2)OCCCC[C@H](C)Oc2ccc(N(C)C)cc2C1=O,active: 99%
12,C[C@H]1CN([C@@H](C)CO)C(=O)c2cc(NS(=O)(=O)c3ccc(Cl)cc3)ccc2O[C@@H]1CN(C)Cc1ccc(Oc2ccccc2)cc1,inconclusive: 95.7%
13,C[C@@H]1CCCCO[C@@H](CN(C)CC2CCCCC2)[C@@H](C)CN([C@H](C)CO)C(=O)c2cc(NC(=O)Nc3cccc4ccccc34)ccc2O1,inconclusive: 117%
14,C[C@@H]1CCCCO[C@@H](CN(C)Cc2ccc(Cl)c(Cl)c2)[C@@H](C)CN([C@H](C)CO)C(=O)c2cc(NS(=O)(=O)c3cn(C)cn3)ccc2O1,inactive: 51.3%
15,C[C@@H]1CN([C@H](C)CO)C(=O)c2cccc(NC(=O)C3CCOCC3)c2O[C@H]1CN(C)Cc1ccc(Oc2ccccc2)cc1,inconclusive: 100%
16,C[C@H](CO)N1C[C@H](C)[C@H](CN(C)C(=O)Nc2ccc(C(F)(F)F)cc2)Oc2ccc(NC(=O)C3CCCCC3)cc2C1=O,inconclusive: 101%
17,O=C(NC[C@@H]1[C@@H](c2ccccc2)[C@@H](CO)N1Cc1ccccn1)C1CCC1,inactive: 31.9%
